From the supplement of paper PMC8728848
Some of the results follow.

Key:
Test in all cases: glycan array binding signal (z-score within array); higher = stronger binding
Details in all cases: glycan notation: IUPAC condensed, linker removed
[1] = biological target: Gal(b1-4)GlcNAc(b1-2)[Gal(b1-4)GlcNAc(b1-6)]Man(a1-6)[GlcNAc(b1-4)][Gal(b1-4)GlcNAc(b1-2)Man(a1-3)]Man(b1-4)GlcNAc(b1-4)GlcNAc
Outline: (§1)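 The Consortium for Functional Glycomics database supplied 3228 glycan arrays, of which those lacking an available protein sequence were dropped. The binding signal, a within-array Z-score, was averaged across arrays of the same protein sequence and across linkers. Negative scores can be read as non-binding.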

[2] = biological target: Gal(b1-4)GlcNAc(b1-2)[Gal(b1-4)GlcNAc(b1-6)]Man(a1-6)[GlcNAc(b1-4)][Gal(b1-4)GlcNAc(b1-2)[Gal(b1-4)GlcNAc(b1-4)]Man(a1-3)]Man(b1-4)GlcNAc(b1-4)[Fuc(a1-6)]GlcNAc
Outline: as §1

[3] = biological target: Gal(b1-4)GlcNAc(b1-3)Gal(b1-3)GalNAc
Outline: as §1

[4] = biological target: Gal(b1-4)GlcNAc(b1-3)Gal(b1-3)GlcNAc
Outline: as §1

[5] = biological target: Gal(b1-4)GlcNAc(b1-3)Gal(b1-4)Glc
Outline: as §1

[6] = biological target: Gal(b1-4)GlcNAc(b1-3)Gal(b1-4)GlcNAc
Outline: as §1

[7] = biological target: Gal(b1-4)GlcNAc(b1-3)Gal(b1-4)GlcNAc(b1-2)Man(a1-3)[Gal(b1-4)GlcNAc(b1-3)Gal(b1-4)GlcNAc(b1-2)Man(a1-6)]Man(b1-4)GlcNAc(b1-4)GlcNAc
Outline: as §1

[8] = biological target: Gal(b1-4)GlcNAc(b1-3)Gal(b1-4)GlcNAc(b1-2)Man(a1-3)[Gal(b1-4)GlcNAc(b1-3)Gal(b1-4)GlcNAc(b1-2)Man(a1-6)]Man(b1-4)GlcNAc(b1-4)[Fuc(a1-6)]GlcNAc
Outline: as §1

[9] = biological target: Gal(b1-4)GlcNAc(b1-3)Gal(b1-4)GlcNAc(b1-2)[Gal(b1-4)GlcNAc(b1-3)Gal(b1-4)GlcNAc(b1-6)]Man(a1-6)[Gal(b1-4)GlcNAc(b1-3)Gal(b1-4)GlcNAc(b1-2)Man(a1-3)]Man(b1-4)GlcNAc(b1-4)GlcNAc
Outline: as §1

[10] = biological target: Gal(b1-4)GlcNAc(b1-3)Gal(b1-4)GlcNAc(b1-2)[Gal(b1-4)GlcNAc(b1-3)Gal(b1-4)GlcNAc(b1-6)]Man(a1-6)[Gal(b1-4)GlcNAc(b1-3)Gal(b1-4)GlcNAc(b1-2)Man(a1-3)]Man(b1-4)GlcNAc(b1-4)[Fuc(a1-6)]GlcNAc
Outline: as §1

[11] = biological target: Gal(b1-4)GlcNAc(b1-3)Gal(b1-4)GlcNAc(b1-3)Gal(b1-4)GlcNAc
Outline: as §1

[12] = biological target: Gal(b1-4)GlcNAc(b1-3)Gal(b1-4)GlcNAc(b1-3)Gal(b1-4)GlcNAc(b1-2)Man(a1-3)[Gal(b1-4)GlcNAc(b1-3)Gal(b1-4)GlcNAc(b1-3)Gal(b1-4)GlcNAc(b1-2)Man(a1-6)]Man(b1-4)GlcNAc(b1-4)GlcNAc
Outline: as §1

[13] = biological target: Gal(b1-4)GlcNAc(b1-3)Gal(b1-4)GlcNAc(b1-3)Gal(b1-4)GlcNAc(b1-2)Man(a1-3)[Gal(b1-4)GlcNAc(b1-3)Gal(b1-4)GlcNAc(b1-3)Gal(b1-4)GlcNAc(b1-2)Man(a1-6)]Man(b1-4)GlcNAc(b1-4)[Fuc(a1-6)]GlcNAc
Outline: as §1

[14] = biological target: Gal(b1-4)GlcNAc(b1-3)Gal(b1-4)GlcNAc(b1-3)Gal(b1-4)GlcNAc(b1-2)[Gal(b1-4)GlcNAc(b1-3)Gal(b1-4)GlcNAc(b1-3)Gal(b1-4)GlcNAc(b1-6)]Man(a1-6)[Gal(b1-4)GlcNAc(b1-3)Gal(b1-4)GlcNAc(b1-3)Gal(b1-4)GlcNAc(b1-2)Man(a1-3)]Man(b1-4)GlcNAc(b1-4)[Fuc(a1-6)]GlcNAc
Outline: as §1

[15] = biological target: Gal(b1-4)GlcNAc(b1-3)Gal(b1-4)GlcNAc(b1-3)Gal(b1-4)GlcNAc(b1-3)Gal(b1-4)GlcNAc(b1-2)Man(a1-3)[Gal(b1-4)GlcNAc(b1-3)Gal(b1-4)GlcNAc(b1-3)Gal(b1-4)GlcNAc(b1-3)Gal(b1-4)GlcNAc(b1-2)Man(a1-6)]Man(b1-4)GlcNAc(b1-4)GlcNAc
Outline: as §1

[16] = biological target: Gal(b1-4)GlcNAc(b1-3)Gal(b1-4)GlcNAc(b1-3)Gal(b1-4)GlcNAc(b1-3)Gal(b1-4)GlcNAc(b1-2)Man(a1-3)[Gal(b1-4)GlcNAc(b1-3)Gal(b1-4)GlcNAc(b1-3)Gal(b1-4)GlcNAc(b1-3)Gal(b1-4)GlcNAc(b1-2)Man(a1-6)]Man(b1-4)GlcNAc(b1-4)[Fuc(a1-6)]GlcNAc
Outline: as §1

[17] = biological target: Gal(b1-4)GlcNAc(b1-3)Gal(b1-4)GlcNAc(b1-3)Gal(b1-4)GlcNAc(b1-3)Gal(b1-4)GlcNAc(b1-2)[Gal(b1-4)GlcNAc(b1-3)Gal(b1-4)GlcNAc(b1-3)Gal(b1-4)GlcNAc(b1-3)Gal(b1-4)GlcNAc(b1-6)]Man(a1-6)[Gal(b1-4)GlcNAc(b1-3)Gal(b1-4)GlcNAc(b1-3)Gal(b1-4)GlcNAc(b1-3)Gal(b1-4)GlcNAc(b1-2)Man(a1-3)]Man(b1-4)GlcNAc(b1-4)[Fuc(a1-6)]GlcNAc
Outline: as §1

[18] = biological target: Gal(b1-4)GlcNAc(b1-3)Gal(b1-4)GlcNAc(b1-3)Gal(b1-4)GlcNAc(b1-3)Gal(b1-4)GlcNAc(b1-3)Gal(b1-4)GlcNAc(b1-2)Man(a1-3)[Gal(b1-4)GlcNAc(b1-3)Gal(b1-4)GlcNAc(b1-3)Gal(b1-4)GlcNAc(b1-3)Gal(b1-4)GlcNAc(b1-3)Gal(b1-4)GlcNAc(b1-2)Man(a1-6)]Man(b1-4)GlcNAc(b1-4)GlcNAc
Outline: as §1

[19] = biological target: Gal(b1-4)GlcNAc(b1-3)Gal(b1-4)GlcNAc(b1-3)Gal(b1-4)GlcNAc(b1-3)Gal(b1-4)GlcNAc(b1-3)Gal(b1-4)GlcNAc(b1-2)Man(a1-3)[Gal(b1-4)GlcNAc(b1-3)Gal(b1-4)GlcNAc(b1-3)Gal(b1-4)GlcNAc(b1-3)Gal(b1-4)GlcNAc(b1-3)Gal(b1-4)GlcNAc(b1-2)Man(a1-6)]Man(b1-4)GlcNAc(b1-4)[Fuc(a1-6)]GlcNAc
Outline: as §1

[20] = biological target: Gal(b1-4)GlcNAc(b1-3)Gal(b1-4)GlcNAc(b1-3)Gal(b1-4)GlcNAc(b1-3)Gal(b1-4)GlcNAc(b1-3)Gal(b1-4)GlcNAc(b1-2)[Gal(b1-4)GlcNAc(b1-3)Gal(b1-4)GlcNAc(b1-3)Gal(b1-4)GlcNAc(b1-3)Gal(b1-4)GlcNAc(b1-3)Gal(b1-4)GlcNAc(b1-6)]Man(a1-6)[Gal(b1-4)GlcNAc(b1-3)Gal(b1-4)GlcNAc(b1-3)Gal(b1-4)GlcNAc(b1-3)Gal(b1-4)GlcNAc(b1-3)Gal(b1-4)GlcNAc(b1-2)Man(a1-3)]Man(b1-4)GlcNAc(b1-4)[Fuc(a1-6)]GlcNAc
Outline: as §1

[21] = biological target: Gal(b1-4)GlcNAc(b1-3)Gal(b1-4)GlcNAc(b1-3)Gal(b1-4)GlcNAc(b1-3)Gal(b1-4)GlcNAc(b1-3)Gal(b1-4)GlcNAc(b1-3)Gal(b1-4)GlcNAc(b1-2)Man(a1-3)[Gal(b1-4)GlcNAc(b1-3)Gal(b1-4)GlcNAc(b1-3)Gal(b1-4)GlcNAc(b1-3)Gal(b1-4)GlcNAc(b1-3)Gal(b1-4)GlcNAc(b1-3)Gal(b1-4)GlcNAc(b1-2)Man(a1-6)]Man(b1-4)GlcNAc(b1-4)GlcNAc
Outline: as §1

[22] = biological target: Gal(b1-4)GlcNAc(b1-3)Gal(b1-4)GlcNAc(b1-3)GalNAc
Outline: as §1

[23] = biological target: Gal(b1-4)GlcNAc(b1-3)Gal(b1-4)GlcNAc(b1-3)[Gal(b1-4)GlcNAc(b1-3)Gal(b1-4)GlcNAc(b1-6)]GalNAc
Outline: as §1

B1: Als3-2 (Candida albicans) (protein)
chain: KTITGVFNSFNSLTWSNAATYNYKGPGTPTWNAVLGWSLDGTSASPGDTFTLNMPCVFKFTTSQTSVDLTAHGVKYATCQFQAGEEFMTFSTLTCTVSNTLTPSIKALGTVTLPLAFNVGGTGSSVDLEDSKCFTAGTNTVTFNDGGKKISINVDFERSNVDPKGYLTD
- glycan array binding signal (z-score) [1]: -0.599
- glycan array binding signal (z-score) [2]: -0.701
- glycan array binding signal (z-score) [3]: -0.344
- glycan array binding signal (z-score) [4]: -0.612
- glycan array binding signal (z-score) [5]: -0.332
- glycan array binding signal (z-score) [6]: -0.352
- glycan array binding signal (z-score) [7]: 1.14
- glycan array binding signal (z-score) [8]: 1.04
- glycan array binding signal (z-score) [9]: 2.24
- glycan array binding signal (z-score) [10]: 1.87
- glycan array binding signal (z-score) [11]: -0.495
- glycan array binding signal (z-score) [12]: 3.26
- glycan array binding signal (z-score) [13]: 2.66
- glycan array binding signal (z-score) [14]: -0.345
- glycan array binding signal (z-score) [15]: 2.75
- glycan array binding signal (z-score) [16]: 1.51
- glycan array binding signal (z-score) [17]: 1.73
- glycan array binding signal (z-score) [18]: 5.24
- glycan array binding signal (z-score) [19]: 3.26
- glycan array binding signal (z-score) [20]: 3.16
- glycan array binding signal (z-score) [21]: 0.031
- glycan array binding signal (z-score) [22]: -0.265
- glycan array binding signal (z-score) [23]: -0.05
